In PubChem BioAssay AID2546 (National Center for Advancing Translational Sciences (NCATS), 2010):
Screen size: about 310,000 compounds; about 11,000 (3.5%) were called active. The inconclusive results got no clear call from the source; some entries with a clear call stand among them for comparison. The call rests on the fitted dose curve; in most records, active means well fitted inhibition curve with a large enough effect; inconclusive means small, poorly fitted or top-dose-only effect, or effect the other way; inactive means flat fitted curve, though single readings scatter. No potency is given beside an inconclusive call; the fits are too rough.

experiment: VP16 counterscreen qHTS for inhibitors of ROR gamma transcriptional activity; details: Drosophila S2 Gal4-VP16 UAS-luciferase, luminescence, 20 h; activity, negative = inhibition: at 53.6 µM (top of the series);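 further: Gal4-VP16 expression switched on by copper sulfate through the metallothionein promoter; nearly all actives have a fitted effect of over 50% in size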
On the % scale 0 is the no-effect control and ±100 the full control effect; potency means the concentration at half of the fitted maximal effect; tags describe the fitted curve by direction and shape.

Compound | Potency | activity, negative = inhibition
COc1ccc([C@@H]2C(C#N)=C(N)S[C@@H](c3ccccc3)[C@@H]2[N+](=O)[O-])cc1 | inconclusive [inhibitor, single point] | 
N#CC1=C2SCN(c3ccccc3)CN2C(=O)CC1c1ccccc1Cl (stereo not given) | inconclusive [inhibitor, single point] | 
CC(C)(C)OC(=O)[C@H](Cc1ccccc1)NC(=O)c1[nH]cnc1C(=O)Nc1ccc(Cl)cc1 | active: 8.91 µM | 
COc1cc(CCCN2C(=S)NC[C@@H]2CC2CCCCC2)cc(OC)c1OC | inconclusive [inhibitor, single point] | 
COc1ccc(CCn2c(C)cc(C(=O)CSc3nc(N)cc(=O)[nH]3)c2C)cc1 | inconclusive [inhibitor, single point] | 
O=[N+]([O-])c1cccc(-c2nc(NCc3ccccc3)c3ccccc3n2)c1 | inconclusive [inhibitor, single point] | 
CCOC(=O)/C(=C\c1ccccc1)C(=O)c1cc(C(C)=O)c(Nc2ccccc2)s1 | inconclusive [inhibitor, single point] | 
O=C(Nc1ccc(F)cc1)c1ccc2nsnc2c1 |  | inactive: 13.7%
CC(C)C(c1nnnn1C1CCCC1)N1CCc2ccccc21 (stereo not given) |  | inactive: 11.6%
Cc1cccc(-n2cc(-c3ccc([N+](=O)[O-])cc3)[nH]c2=S)c1 | active: 3.98 µM | 
CCOC(=O)COc1ccccc1/C=C\[N+](=O)[O-] | active: 3.55 µM | 
COc1ccc(Cl)cc1NS(=O)(=O)c1cccc(C(=O)NCC2(N(C)C)CCCCC2)c1 |  | inactive: -5.31%
COc1ccc2nc(N=Nc3ccc(O)c4ccccc34)sc2c1 | active: 5.01 µM | 
COc1cc(C(=O)N/N=C(\c2ccccc2)c2ccccn2)cc(OC)c1OC | active: 1.26 µM | 
COc1ccc(-c2noc3c2-c2nc(-c4ccc(Cl)cc4)sc2CC3)cc1 | inconclusive [inhibitor, full curve, poor fit] | 
CC(C)C[C@H](NC(=O)c1nc[nH]c1C(=O)NCc1ccccc1)C(=O)OC(C)(C)C | active: 10 µM | 
COc1cccc(OCc2cc(C(=O)N3CCN(C(=O)c4ccco4)CC3)no2)c1 | inconclusive [inhibitor, full curve] | 
COc1cc(C)ccc1OCc1cc(C(=O)N2CCN(C3CCCCC3)CC2)no1 | inconclusive [activator, single point] | 
Cc1cccc(OCCNC(=S)NC(=O)c2cncc(Br)c2)c1 | active: 6.31 µM | 
COc1ccc(OC)c(/C=C(\NC(=O)c2ccccc2)C(=O)N/N=C/c2ccc(C)s2)c1 | inconclusive [inhibitor, single point] | 
COc1ccc(N2C(=O)CCC(C(=O)N3CCCCCC3)C2c2ccc(OC)c(OC)c2)cc1 (stereo not given) |  | inactive: -4.12%
COCCOC(=O)c1[nH]c2c(c1C)C(=O)CC(c1ccc(N(C)C)cc1)C2 (stereo not given) | inconclusive [inhibitor, single point] | 
C=CCC1(CC=C)CCCN1C(=O)c1cc(COc2cncc(Cl)c2)on1 | inconclusive [inhibitor, single point] | 

Compound | Potency | activity, negative = inhibition
CCOC(=O)C1=C(C)N=C2c3ccccc3C(=O)C2C1c1ccc(C)cc1 (stereo not given) | inconclusive [inhibitor, single point] | 
O=[N+]([O-])c1ccccc1-c1nc(-c2ccc(Br)o2)no1 | inconclusive [activator, single point] | 
CC(=O)N(Cc1ccc(F)cc1)Cc1nc2ccccc2c(=O)[nH]1 | inconclusive [inhibitor, single point] | 
O=C(Nc1ccc2ccccc2n1)c1ccccc1Cl | inconclusive [inhibitor, single point] | 
S=c1[nH]nc(COc2ccccc2)n1/N=C/c1ccccc1Br | inconclusive [inhibitor, single point] | 
CC1(c2nnc(Cc3ccccc3)o2)CC(c2ccc([N+](=O)[O-])cc2)=NO1 (stereo not given) | inconclusive [inhibitor, single point] | 
O=C(CC(c1ccccc1)c1cc(Br)ccc1O)NCCN1CCOCC1 (stereo not given) | inconclusive [inhibitor, single point] | 
COc1ccc(C(=O)NCC(=O)N/N=C(\C)Cc2ccccc2)cc1 | inconclusive [inhibitor, single point] | 
C=CCn1c(N)c(C(=O)NCC2CCCO2)c2nc3ccccc3nc21 (stereo not given) | inconclusive [inhibitor, single point] | 
O=C(CN(c1ccc2c(c1)OCCO2)S(=O)(=O)c1ccccc1)NCc1ccc(Cl)cc1 |  | inactive: -4.16%
CSc1ccccc1NC(=O)c1ccccc1 |  | inactive: -0.949%
Cc1cc(C(=O)COc2ccccc2C(N)=O)c(C)n1CC1CCCO1 (stereo not given) | active: 10 µM | 
O=C1CCCC1C(O)c1ccc2ccccc2c1 (stereo not given) |  | inactive: -7.33%
CN1CCN(S(=O)(=O)c2ccc(NC(=S)NC(=O)c3ccc(Cl)cc3)cc2)CC1 | inconclusive [inhibitor, single point] | 
COc1cc(OC)cc(C2=Nn3c(nnc3-c3cccc(OC)c3)SC2)c1 |  | inactive: -11.7%
CC(C)(C)C(=O)[C@@H]1[C@@H]2C(=O)N(Cc3ccccc3)C(=O)[C@@H]2[C@H]2c3ccccc3C=CN12 | inconclusive [inhibitor, single point] | 
O=Nc1c(O)n(Cc2ccc(Cl)cc2Cl)c2ccccc12 | inconclusive [inhibitor, single point] | 
NC(=O)CC1C(=O)N(c2ccccc2)C(=S)N1NC(=O)c1ccc(Br)cc1 (stereo not given) | inconclusive [inhibitor, single point] | 
O=C1/C(=C/N(C(=O)c2ccco2)c2ccc(Br)cc2)Sc2ccccc21 | active: 12.6 µM | 
CC(C)(C)c1ccc(Cn2ccc(-c3ccc4c(c3)OCO4)n2)cc1 |  | inactive: -9.14%
Clc1ccc(C2=NNC(=NCc3ccccc3)SC2)cc1 | inconclusive [activator, partial curve] | 
CCOC(=O)c1cccc(-n2c(C)cc(C=O)c2C)c1 |  | inactive: 2.76%
